According to PMC6549159:
These are yes or no findings as the source states them, for the method shown. For some assays here: In cells and extracts the contact can be indirect. Some results given as binding are weak or reduced against the parent protein; the word gives no strength.

Amino acid sequences for entries named in this document (tags omitted). A change or cut given only in a name is not applied to a line headed by its entry. Chains listed by the source or under a name are the forms on record and can include a tag or linker. Residues count along the entry.
UniProt O35129: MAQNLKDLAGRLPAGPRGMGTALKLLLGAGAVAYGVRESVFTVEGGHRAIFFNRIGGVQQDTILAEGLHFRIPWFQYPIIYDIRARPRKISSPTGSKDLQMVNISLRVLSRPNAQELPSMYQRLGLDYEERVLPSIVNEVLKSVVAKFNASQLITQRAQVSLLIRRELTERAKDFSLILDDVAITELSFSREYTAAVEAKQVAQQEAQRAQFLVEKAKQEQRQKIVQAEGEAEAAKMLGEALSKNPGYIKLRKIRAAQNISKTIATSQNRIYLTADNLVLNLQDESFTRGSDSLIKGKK
flag-tagged Phb2-Y2H (aa 89-299): residues 89-299 of O35129
flag-tagged Phb2-Amino (89-180 aa): residues 89-180 of O35129
flag-tagged Phb2 120-232 (120-232 aa): residues 120-232 of O35129
flag-tagged Phb2-Central (140-244 aa): residues 140-244 of O35129
flag-tagged Phb2-Carboxy (180-299 aa): residues 180-299 of O35129
UniProt O08808: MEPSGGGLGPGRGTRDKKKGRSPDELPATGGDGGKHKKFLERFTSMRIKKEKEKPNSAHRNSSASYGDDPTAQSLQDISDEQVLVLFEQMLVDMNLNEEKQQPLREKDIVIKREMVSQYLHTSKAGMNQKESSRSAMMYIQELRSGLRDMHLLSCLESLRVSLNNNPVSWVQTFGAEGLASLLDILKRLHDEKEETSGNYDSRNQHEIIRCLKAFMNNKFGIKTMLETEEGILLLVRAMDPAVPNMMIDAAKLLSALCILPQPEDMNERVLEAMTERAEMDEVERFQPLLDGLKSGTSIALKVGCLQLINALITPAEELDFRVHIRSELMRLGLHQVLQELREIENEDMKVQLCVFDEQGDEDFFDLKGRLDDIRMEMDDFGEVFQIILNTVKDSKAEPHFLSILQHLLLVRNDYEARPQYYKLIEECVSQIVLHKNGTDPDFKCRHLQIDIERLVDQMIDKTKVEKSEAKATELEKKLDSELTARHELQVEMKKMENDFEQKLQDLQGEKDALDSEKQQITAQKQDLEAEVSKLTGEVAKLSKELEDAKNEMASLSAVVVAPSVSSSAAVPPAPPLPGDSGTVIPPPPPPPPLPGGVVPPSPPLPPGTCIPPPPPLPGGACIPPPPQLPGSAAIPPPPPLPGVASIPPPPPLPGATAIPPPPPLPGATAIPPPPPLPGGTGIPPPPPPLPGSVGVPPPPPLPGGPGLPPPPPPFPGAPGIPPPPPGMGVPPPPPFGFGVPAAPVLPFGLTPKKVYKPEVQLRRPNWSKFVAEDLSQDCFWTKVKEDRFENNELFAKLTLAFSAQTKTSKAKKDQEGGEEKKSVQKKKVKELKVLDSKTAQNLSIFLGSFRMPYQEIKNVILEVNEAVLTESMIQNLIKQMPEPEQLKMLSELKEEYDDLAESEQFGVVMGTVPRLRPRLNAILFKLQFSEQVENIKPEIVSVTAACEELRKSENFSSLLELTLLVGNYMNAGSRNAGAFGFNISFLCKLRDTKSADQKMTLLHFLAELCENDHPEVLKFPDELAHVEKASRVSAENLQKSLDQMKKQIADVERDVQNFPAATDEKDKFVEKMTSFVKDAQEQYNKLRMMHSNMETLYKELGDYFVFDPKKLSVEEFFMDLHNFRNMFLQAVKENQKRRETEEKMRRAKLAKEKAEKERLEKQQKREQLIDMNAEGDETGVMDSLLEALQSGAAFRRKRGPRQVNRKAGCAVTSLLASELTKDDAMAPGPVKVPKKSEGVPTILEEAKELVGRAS
UniProt Q60823: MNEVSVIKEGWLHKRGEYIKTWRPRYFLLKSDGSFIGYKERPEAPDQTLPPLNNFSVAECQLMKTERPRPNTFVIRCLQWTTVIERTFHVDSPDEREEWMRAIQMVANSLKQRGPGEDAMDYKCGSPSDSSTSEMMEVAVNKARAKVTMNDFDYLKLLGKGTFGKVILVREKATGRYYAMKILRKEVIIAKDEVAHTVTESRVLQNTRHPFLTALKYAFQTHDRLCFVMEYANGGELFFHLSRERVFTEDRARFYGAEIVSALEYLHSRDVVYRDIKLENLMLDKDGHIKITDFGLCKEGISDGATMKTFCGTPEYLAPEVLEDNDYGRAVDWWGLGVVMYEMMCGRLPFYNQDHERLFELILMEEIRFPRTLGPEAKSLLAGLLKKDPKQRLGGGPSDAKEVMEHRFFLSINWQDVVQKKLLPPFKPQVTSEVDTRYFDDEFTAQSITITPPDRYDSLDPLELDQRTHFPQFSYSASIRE
UniProt Q02248: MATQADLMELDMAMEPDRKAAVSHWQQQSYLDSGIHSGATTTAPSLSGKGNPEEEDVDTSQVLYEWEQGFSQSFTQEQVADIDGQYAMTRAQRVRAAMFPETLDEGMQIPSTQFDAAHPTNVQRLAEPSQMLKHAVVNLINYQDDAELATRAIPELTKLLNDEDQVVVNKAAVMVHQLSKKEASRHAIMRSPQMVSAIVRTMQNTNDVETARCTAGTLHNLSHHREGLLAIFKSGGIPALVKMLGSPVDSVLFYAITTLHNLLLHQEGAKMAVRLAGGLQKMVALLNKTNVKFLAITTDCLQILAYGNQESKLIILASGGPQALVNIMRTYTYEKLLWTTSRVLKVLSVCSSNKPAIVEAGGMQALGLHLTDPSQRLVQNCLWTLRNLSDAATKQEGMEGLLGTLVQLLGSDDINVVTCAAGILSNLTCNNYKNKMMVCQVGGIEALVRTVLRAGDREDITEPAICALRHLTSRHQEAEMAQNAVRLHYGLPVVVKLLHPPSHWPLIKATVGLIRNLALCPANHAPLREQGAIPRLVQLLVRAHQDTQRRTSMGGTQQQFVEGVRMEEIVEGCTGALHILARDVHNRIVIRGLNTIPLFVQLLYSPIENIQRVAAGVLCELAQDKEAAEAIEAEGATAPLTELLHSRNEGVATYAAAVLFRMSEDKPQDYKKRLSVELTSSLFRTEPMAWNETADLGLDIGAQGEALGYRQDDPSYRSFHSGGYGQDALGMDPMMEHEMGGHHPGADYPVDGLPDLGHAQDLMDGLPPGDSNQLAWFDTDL
UniProt P10085: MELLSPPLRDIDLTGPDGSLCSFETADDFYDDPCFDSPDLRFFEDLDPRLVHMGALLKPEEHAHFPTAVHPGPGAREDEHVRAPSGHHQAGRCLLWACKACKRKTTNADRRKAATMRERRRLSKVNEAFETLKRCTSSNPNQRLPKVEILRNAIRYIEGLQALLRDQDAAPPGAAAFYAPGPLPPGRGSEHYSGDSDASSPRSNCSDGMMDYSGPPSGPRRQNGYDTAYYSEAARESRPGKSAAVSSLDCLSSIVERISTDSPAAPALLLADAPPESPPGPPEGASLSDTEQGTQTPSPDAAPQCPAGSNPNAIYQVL

Tests used:
[1] = target: Prohibitin2 (Phb2), endogenous (mouse (endogenous in C2C12)) (UniProt O35129); assay: co-IP; endogenous proteins, C2C12 myotubes in differentiation medium (D24, D72); IP with anti-mDia1 or anti-Phb2 antibody, western blot
[2] = target: Prohibitin2 (Phb2), endogenous (mouse (endogenous in C2C12)) (UniProt O35129); assay: co-IP; endogenous proteins, proliferating C2C12 myoblasts in growth medium (GM); IP with anti-mDia1 or anti-Phb2 antibody, western blot
[3] = target: mDia1ΔN3 fused to GAL4 DNA-binding domain (mouse) (UniProt O08808); assay: two-hybrid; mDia1ΔN3-BD (pGBKT7) as bait, mouse embryonic cDNA library in pACT2 as prey, S. cerevisiae PJ69-4A; ADE2 and LacZ reporters; positive clones re-tested by hybrid reconstitution against empty pGBKT7
[4] = target: mammalian Diaphanous1 (mDia1), endogenous (mouse (endogenous in C2C12)) (UniProt O08808); assay: co-IP; endogenous proteins, C2C12 myotubes in differentiation medium (D24, D72); IP with anti-mDia1 or anti-Phb2 antibody, western blot
[5] = target: mammalian Diaphanous1 (mDia1), endogenous (mouse (endogenous in C2C12)) (UniProt O08808); assay: co-IP; cytoplasmic extract of D72 C2C12 myotubes; IP with anti-mDia1 antibody, blot for Phb2
[6] = target: mammalian Diaphanous1 (mDia1), endogenous (mouse (endogenous in C2C12)) (UniProt O08808); assay: co-IP; endogenous proteins, proliferating C2C12 myoblasts in growth medium (GM); IP with anti-mDia1 or anti-Phb2 antibody, western blot
[7] = target: flag-tagged Phb2 120-232 (120-232 aa) (mouse) (UniProt O35129); assay: co-IP; HEK293T co-transfected with flag-tagged Phb2 construct and GFP-tagged mDia1 construct; IP with anti-flag antibody, blot with anti-GFP
[8] = target: flag-tagged Phb2-Y2H (aa 89-299) (mouse) (UniProt O35129); assay: as above
[9] = target: flag-tagged Phb2-Central (140-244 aa) (mouse) (UniProt O35129); assay: as above
[10] = target: flag-tagged Phb2-Amino (89-180 aa) (mouse) (UniProt O35129); assay: as above
[11] = target: flag-tagged Phb2-Carboxy (180-299 aa) (mouse) (UniProt O35129); assay: as above
[12] = target: mammalian Diaphanous1 (mDia1), endogenous (mouse (endogenous in C2C12)) (UniProt O08808); assay: co-IP; endogenous proteins, C2C12 myotubes in differentiation medium (D24, D72); IP with anti-mDia1 or anti-Phb2 antibody, western blot; remark: listed apart in the source

“mammalian Diaphanous1 (mDia1), endogenous (from UniProt O08808 1-1255)” was tested, and the binding [1] was “binds” and the binding [2] was “no binding (condition: in proliferating myoblasts (GM))”.

For “Phb2-AD, partial Prohibitin2 clone recovered in the yeast two-hybrid screen (from UniProt O35129 89-299) (domain or fragment)”, the binding [3] was “binds”.

“pAkt2 Ser474, endogenous (from UniProt Q60823 1-481)” was tested, and the binding [4] was “binds”.

With “Akt2, endogenous (from UniProt Q60823 1-481)” the binding [4] was “binds”.

In the case of “active β-Catenin, endogenous (from UniProt Q02248 1-781)”, the binding [4] is reported as “binds”.

With “Prohibitin2 (Phb2), endogenous (from UniProt O35129 1-299)” the binding [5] was “binds”, the binding [4] was “binds” and the binding [6] was “no binding (condition: in proliferating myoblasts (GM))”.

For “MyoD, endogenous (from UniProt P10085 1-318)”, the binding [4] was “binds” and the binding [6] was “no binding (condition: in proliferating myoblasts (GM))”.

In the case of “GFP-tagged mDia1ΔN3 (from UniProt O08808 543-1192) (domain or fragment)”, the binding [7] is reported as “binds”, the binding [8] is reported as “binds” and the binding [9] is reported as “binds”. For the same molecule, the binding [10] was “no binding” and the binding [11] was “binds”.

B1: Prohibitin1 (Phb1), endogenous (protein, UniProt P67778 1-272)
chain: MAAKVFESIGKFGLALAVAGGVVNSALYNVDAGHRAVIFDRFRGVQDIVVGEGTHFLIPWVQKPIIFDCRSRPRNVPVITGSKDLQNVNITLRILFRPVASQLPRIYTSIGEDYDERVLPSITTEILKSVVARFDAGELITQRELVSRQVSDDLTERAATFGLILDDVSLTHLTFGKEFTEAVEAKQVAQQEAERARFVVEKAEQQKKAAIISAEGDSKAAELIANSLATAGDGLIELRKLEAAEDIAYQLSRSRNITYLPAGQSVLLQLPQ
In the case of B1, the binding [12] is reported as “binds”.
